The values that follow come from PubChem BioAssay AID1240 (Sanford-Burnham Center for Chemical Genomics, 2008).

Among all 50,000 compounds or so, about 800 (1.6%) showed an effect of 50% or more. The list shows a part of the results.

The assay addresses Bcl-2-like protein 10 (Homo sapiens) (UniProt Q9HD36). The assay is described as follows: TR3 peptide-Bcl-B binding displacers, biochemical primary FP assay, phenotype converters (AID 1240).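 Further: 0% = Bcl-B with tracer peptide and DMSO and 100% = tracer peptide lacking Bcl-B.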 The following applies: GST-Bcl-B / FITC-TR3 peptide fluorescence polarization; stronger effect = higher value; compound at 3.75 mg/L.
Chain of UniProt Q9HD36 (Q9HD36 whole entry, looked up): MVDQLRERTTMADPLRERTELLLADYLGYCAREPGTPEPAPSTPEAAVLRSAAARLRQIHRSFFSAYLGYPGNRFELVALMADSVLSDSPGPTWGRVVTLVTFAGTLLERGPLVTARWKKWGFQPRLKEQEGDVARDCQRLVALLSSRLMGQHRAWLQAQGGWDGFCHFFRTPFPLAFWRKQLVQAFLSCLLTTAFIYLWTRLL
Consider `CCN1C(=O)/C(=C\c2ccc(O)cc2O)SC1=S`, for which the displacement came out at 3.7%.

For the compound `O=C(Cn1c(NCCCO)nc2ccccc21)c1cccs1`, the displacement is -11.7%.

Take `O=C(CCNc1ccc2ccccc2c1)c1ccc(Cl)c(Cl)c1`: the displacement is -16.2%.

In the case of `COc1cc(CNC2C3CC4CC(C3)CC2C4)c([N+](=O)[O-])cc1OC` (configuration not stated), the displacement was 7.7%.

With `C=CCN1C(=O)/C(=C\c2cc(Br)c(OCc3ccc(F)cc3)c(OCC)c2)SC1=S`, the displacement is -3.9%.

On to `O=C(Nc1cccc(C(=O)O)c1)/C(=C/c1cccc([N+](=O)[O-])c1)NC(=O)c1ccccc1`, for which the displacement was determined as 1.1%.

On to `O=C(CC1CCCCC1)Nc1ccc(Br)cc1`, for which the displacement is 1.4%.

Consider `Cc1cc(C)cc(CC2CC(=O)N(c3ccc([N+](=O)[O-])cc3)C2=O)c1` (configuration not stated), for which the displacement stood at 9.6%.

For the compound `O=C1C2C3C=CC(C2C(=O)N1c1ccccc1)C1C(=O)N(c2ccccc2)C(=O)C31` (configuration not stated), the displacement was -1.9%.

Turning to `O=C(c1ccco1)N(C(=O)c1ccco1)c1cc(C(F)(F)F)ccc1Cl`, the displacement was -3.3%.

`O=C(CCC(=O)Nc1ccccc1)N/N=C/c1ccncc1`: the displacement was found to be 2.1%.

Regarding `CCOc1ccc(NC(=S)NC(NC(=O)c2ccccc2Br)C(Cl)(Cl)Cl)cc1` (configuration not stated), the displacement was 0%.

Consider `Cc1cc(OCC(=O)Nc2cccc(F)c2)cc(C)c1Cl`, for which the displacement was found to be 4.1%.

Take `O=C(COc1ccccc1[N+](=O)[O-])Nc1ccc2oc(-c3cccnc3)nc2c1`: the displacement was 3.8%.

Take `CN1C(=O)/C(=C\c2ccc(OCc3ccccc3Cl)cc2)SC1=S`: the displacement turned out to be 15.9%.

Consider `Cc1cccc(C(=O)Nc2cc(-c3cccc(C)c3)[nH]n2)c1`, for which the displacement was 8.8%.

`Cc1ccc2[nH]c(C)c(CN3CCN(C)CC3)c(=O)c2c1`: the displacement was determined as 16.8%.

As for `O=C1CC(NCCc2ccc(Cl)cc2)C(=O)N1c1ccc(Cl)cc1` (configuration not stated), the displacement is -18.2%.

Consider `O=c1oc2ccc(Cl)cc2cc1-c1ccccc1`, for which the displacement is 8%.

Consider `O=C(Nc1ccc(Cl)c(C(F)(F)F)c1)c1ccc(I)cc1`, for which the displacement was 5.4%.

Turning to `Cc1cccc(N2C(=O)CC(N3CCN(c4cccc(Cl)c4)CC3)C2=O)c1` (configuration not stated), the displacement worked out at 6.8%.

With `CC(Cc1ccccc1)NC(=S)Nc1ccccc1` (configuration not stated), the displacement was -10.2%.

For `CCOc1ccc(C(=O)c2cccc([N+](=O)[O-])c2)cc1`, the displacement was determined as 11.7%.

`O=C(Nn1cnnc1)c1ccccc1Cl`: the displacement was -1.5%.

As to `O=C(COC(=O)C(O)c1ccccc1)c1ccc2c(c1)OCCO2` (configuration not stated), the displacement was -8.1%.

Take `Cc1ccc(C(=O)Nc2nc(-c3ccc(F)cc3)cs2)cc1`: the displacement was -5.9%.

As to `CCOc1ccc(N(CC(=O)Nc2ccc(F)cc2)S(=O)(=O)c2ccc(SC)cc2)cc1`, the displacement came out at 10%.

Regarding `COc1cc(/C=C/C(=O)c2c(-c3ccccc3)c3cc(Br)ccc3[nH]c2=O)cc(OC)c1OC`, the displacement is 10.5%.

`COc1ccccc1NCC(=O)N/N=C/c1ccccc1OCc1ccc(Br)cc1`: the displacement was determined as 1.5%.

Regarding `Cc1ccccc1OCC(=O)Nc1cccc(NC(=O)c2cccc(Cl)c2)c1`, the displacement is -6.5%.

Take `CC1=C(C#N)c2nc(N)c(C#N)c(C)c2/C1=C/c1ccc(-c2ccc([N+](=O)[O-])cc2C)o1`: the displacement is -5.8%.

Turning to `O=C(Oc1ccccc1C(=S)N1CCOCC1)c1cccc2ccccc12`, the displacement is 9.2%.

Consider `COc1ccccc1CNC(=O)C(OC)c1ccccc1` (configuration not stated), for which the displacement was -5.7%.

`CC(=O)Nc1ccc(-c2nc3ccc(C)cc3s2)cc1`: the displacement is -3.9%.

Turning to `COC(=O)c1ccccc1Sc1c(-c2ccccc2)nc2ccccn12`, the displacement amounted to 8.1%.

Consider `COc1cccc2cc(-c3nc(-c4ccc(C)c(C)c4)cs3)c(=O)oc12`, for which the displacement worked out at 80.5%.

In the case of `C=CCN1Cc2c(sc(C)c2C)N(C(=O)c2ccccc2)C1`, the displacement was 1.9%.

With `COc1ccc(/C=C2/C(=O)ON=C2c2ccccc2)cc1`, the displacement worked out at 13.6%.

Turning to `Cc1ccc(C)c(NC(=O)/C=C\C(=O)O)c1`, the displacement was determined as 18.4%.

As for `O=C(NCCO)C(=O)NCc1ccccc1`, the displacement was found to be 15%.

Take `CN(C)c1ccc(C2/C(=C(\O)c3ccccc3)C(=O)C(=O)N2CCCCCC(=O)O)cc1` (configuration not stated): the displacement is -3.9%.

As to `COc1ccccc1N1CCN(C(=O)c2ccncc2)CC1`, the displacement was -0.6%.

In the case of `CC1(C)CC2CC(C)(CN2S(=O)(=O)c2ccc(C(=O)Nc3ccc(Cl)c(S(=O)(=O)N4CCOCC4)c3)cc2)C1` (configuration not stated), the displacement amounted to 12.3%.

For the compound `Cc1cc(C)c(NC(=O)C(C)Oc2cccc(Cl)c2)c(C)c1` (configuration not stated), the displacement is -5%.

For the compound `CCCC1=NN(C(=O)Cc2ccc([N+](=O)[O-])cc2)C(O)(C(F)(F)F)C1` (configuration not stated), the displacement was found to be 1.4%.

Take `CCOc1ccc(NC(=O)/C(=C\c2cccnc2)NC(=O)c2ccc(C)cc2)cc1`: the displacement was -4.8%.

For the compound `Cc1ccc(CCC(=O)Nc2ccc([N+](=O)[O-])cc2)o1`, the displacement came to 12.8%.

`Cc1nccn1S(=O)(=O)c1ccc2ccccc2c1`: the displacement is -2.8%.

On to `O=C1C(Nc2ccccc2)=CC(c2ccccc2[N+](=O)[O-])N1c1ccccc1` (configuration not stated), for which the displacement was -2.5%.

`COc1cc2c(cc1NC(=O)c1cccc([N+](=O)[O-])c1C)oc1ccccc12`: the displacement is 1.2%.

With `COC(=O)C1=C(C)N(C)C(C)=C(C(=O)OC)C1c1ccc(OCc2ccccc2)c(OC)c1`, the displacement was found to be 0.2%.

In the case of `C/C(=N/NC(=O)COc1ccc(C)cc1)c1cccc([N+](=O)[O-])c1`, the displacement was found to be 10%.

For the compound `CC1=C(C(=O)Nc2ccccc2C)C(c2ccc(C)cc2)NC(=O)N1` (configuration not stated), the displacement is -5.1%.

In the case of `Cc1cc(C)c2oc(-c3cccc(NC(=O)c4cccc5ccccc45)c3)nc2c1`, the displacement is -10.7%.

Regarding `O=C(Nc1ccccc1)c1ccccc1N=Cc1ccc(C=Nc2ccccc2C(=O)Nc2ccccc2)cc1`, the displacement was 121%.

As to `CCN1C(=O)/C(=C/c2nc3ccccc3c(=O)n2-c2cccc(C)c2)c2ccccc21`, the displacement is -4.1%.

As for `Cc1ccccc1C(=O)Nc1cccc(Oc2ccc3c(c2)C(=O)N(c2ccccc2)C3=O)c1`, the displacement was 8.7%.

As for `O=C(COc1ccc2c3c(c(=O)oc2c1)CCCC3)c1ccc(F)cc1`, the displacement is -1.3%.

On to `CN(C)NC(=O)C1CCC(C)(C(=O)O)C1(C)C` (configuration not stated), for which the displacement stood at 1.4%.

As for `CCN(CC)Cc1ccc(OC(C)C)c(CN(CC)CC)c1`, the displacement is -6.6%.

On to `CCc1nnc(N/N=C/c2c(Cl)cccc2Cl)n1N`, for which the displacement was 12.4%.

For the compound `COc1ccc(NC(=O)Nc2nnc(-c3ccc(OC)c(OC)c3)s2)cc1`, the displacement came out at 22.6%.

As for `CC(=O)N(C(C)=O)c1cccc2c(N(C(C)=O)C(C)=O)cccc12`, the displacement was found to be 1%.

Consider `COc1ccc(C(=O)N2CCN(S(=O)(=O)c3ccc(Cl)cc3)CC2)cc1OC`, for which the displacement is -9.4%.

Consider `COc1ccc(S(=O)(=O)N(CC(=O)NCCSCc2ccc(Cl)cc2)c2cc(C)cc(C)c2)cc1OC`, for which the displacement amounted to 11.3%.

Take `CCOC(=O)c1c(NC(=O)c2ccc(Cl)cc2Cl)sc(C(=O)Nc2ccccc2F)c1C`: the displacement is -3.9%.

On to `Cc1cccc(/C(N)=N/OC(=O)c2ccccc2I)c1`, for which the displacement stood at 1.1%.
